Among the data in paper PMC5467238 are binding values, retold here.

Amino acid sequences for entries named in this document (tags omitted).
UniProt Q04637: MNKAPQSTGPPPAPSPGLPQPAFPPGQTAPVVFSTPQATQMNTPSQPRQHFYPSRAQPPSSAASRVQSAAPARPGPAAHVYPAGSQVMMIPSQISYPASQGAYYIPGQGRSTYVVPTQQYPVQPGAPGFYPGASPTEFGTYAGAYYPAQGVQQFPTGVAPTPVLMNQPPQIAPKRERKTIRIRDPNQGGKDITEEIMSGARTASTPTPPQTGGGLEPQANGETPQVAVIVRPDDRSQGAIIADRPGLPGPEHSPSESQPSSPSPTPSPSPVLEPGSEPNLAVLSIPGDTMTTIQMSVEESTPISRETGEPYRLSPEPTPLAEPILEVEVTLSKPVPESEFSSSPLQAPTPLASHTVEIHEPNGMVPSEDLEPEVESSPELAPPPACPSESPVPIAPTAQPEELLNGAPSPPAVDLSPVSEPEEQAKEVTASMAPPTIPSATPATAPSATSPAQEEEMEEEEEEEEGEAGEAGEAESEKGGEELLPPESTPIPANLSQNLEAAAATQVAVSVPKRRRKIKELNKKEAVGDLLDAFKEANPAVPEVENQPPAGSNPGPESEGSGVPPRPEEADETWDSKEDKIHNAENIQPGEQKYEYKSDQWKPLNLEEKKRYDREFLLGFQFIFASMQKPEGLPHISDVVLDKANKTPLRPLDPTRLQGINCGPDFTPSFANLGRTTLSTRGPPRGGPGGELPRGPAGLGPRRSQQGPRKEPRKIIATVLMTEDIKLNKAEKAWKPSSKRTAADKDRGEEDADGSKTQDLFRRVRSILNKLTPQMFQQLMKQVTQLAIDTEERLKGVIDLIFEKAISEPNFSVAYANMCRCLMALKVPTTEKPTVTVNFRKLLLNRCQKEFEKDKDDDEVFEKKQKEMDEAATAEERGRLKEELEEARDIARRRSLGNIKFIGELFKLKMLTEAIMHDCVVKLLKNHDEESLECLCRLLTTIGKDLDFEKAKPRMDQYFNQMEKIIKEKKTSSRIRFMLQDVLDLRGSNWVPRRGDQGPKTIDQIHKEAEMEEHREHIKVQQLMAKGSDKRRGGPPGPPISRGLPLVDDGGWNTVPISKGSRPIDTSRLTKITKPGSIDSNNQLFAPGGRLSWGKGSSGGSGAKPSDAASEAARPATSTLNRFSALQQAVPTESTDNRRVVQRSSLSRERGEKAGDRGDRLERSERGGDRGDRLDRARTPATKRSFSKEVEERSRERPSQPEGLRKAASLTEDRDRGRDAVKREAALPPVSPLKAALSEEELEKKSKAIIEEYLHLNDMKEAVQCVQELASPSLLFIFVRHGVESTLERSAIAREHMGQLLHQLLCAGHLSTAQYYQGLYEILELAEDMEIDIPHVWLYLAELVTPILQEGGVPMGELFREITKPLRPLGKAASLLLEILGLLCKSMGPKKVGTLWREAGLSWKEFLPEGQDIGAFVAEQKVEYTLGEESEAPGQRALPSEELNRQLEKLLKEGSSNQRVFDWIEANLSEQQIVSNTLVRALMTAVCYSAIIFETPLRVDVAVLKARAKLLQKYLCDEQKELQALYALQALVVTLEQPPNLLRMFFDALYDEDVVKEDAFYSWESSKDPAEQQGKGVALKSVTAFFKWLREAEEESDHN
UniProt O95817: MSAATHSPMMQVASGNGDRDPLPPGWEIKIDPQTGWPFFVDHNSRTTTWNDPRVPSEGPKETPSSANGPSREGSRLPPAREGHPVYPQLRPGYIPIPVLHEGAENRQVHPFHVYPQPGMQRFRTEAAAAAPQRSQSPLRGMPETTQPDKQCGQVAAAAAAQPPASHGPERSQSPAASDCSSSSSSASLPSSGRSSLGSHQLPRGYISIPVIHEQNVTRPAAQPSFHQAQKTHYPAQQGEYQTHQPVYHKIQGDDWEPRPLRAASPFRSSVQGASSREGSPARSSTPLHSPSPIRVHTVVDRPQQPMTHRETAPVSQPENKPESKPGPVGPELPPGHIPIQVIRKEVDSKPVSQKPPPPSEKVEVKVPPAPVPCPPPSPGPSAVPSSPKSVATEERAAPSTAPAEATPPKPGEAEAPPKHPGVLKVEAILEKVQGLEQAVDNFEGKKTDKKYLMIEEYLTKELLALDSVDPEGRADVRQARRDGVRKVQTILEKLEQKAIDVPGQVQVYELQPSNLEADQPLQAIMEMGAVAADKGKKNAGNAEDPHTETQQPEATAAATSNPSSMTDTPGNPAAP
UniProt P68104: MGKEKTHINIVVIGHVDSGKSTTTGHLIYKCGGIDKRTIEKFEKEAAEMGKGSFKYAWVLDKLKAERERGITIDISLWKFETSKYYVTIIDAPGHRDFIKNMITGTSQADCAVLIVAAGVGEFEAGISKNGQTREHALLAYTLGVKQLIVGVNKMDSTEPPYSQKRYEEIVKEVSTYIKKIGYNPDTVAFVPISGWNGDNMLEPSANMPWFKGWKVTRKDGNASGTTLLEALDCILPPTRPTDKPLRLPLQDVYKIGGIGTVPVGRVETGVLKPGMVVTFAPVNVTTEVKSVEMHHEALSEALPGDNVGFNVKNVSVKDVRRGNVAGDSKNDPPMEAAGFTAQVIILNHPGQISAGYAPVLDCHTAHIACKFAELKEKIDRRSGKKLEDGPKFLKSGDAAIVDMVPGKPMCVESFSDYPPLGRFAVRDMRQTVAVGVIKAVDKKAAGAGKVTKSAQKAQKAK
UniProt Q9UBN7: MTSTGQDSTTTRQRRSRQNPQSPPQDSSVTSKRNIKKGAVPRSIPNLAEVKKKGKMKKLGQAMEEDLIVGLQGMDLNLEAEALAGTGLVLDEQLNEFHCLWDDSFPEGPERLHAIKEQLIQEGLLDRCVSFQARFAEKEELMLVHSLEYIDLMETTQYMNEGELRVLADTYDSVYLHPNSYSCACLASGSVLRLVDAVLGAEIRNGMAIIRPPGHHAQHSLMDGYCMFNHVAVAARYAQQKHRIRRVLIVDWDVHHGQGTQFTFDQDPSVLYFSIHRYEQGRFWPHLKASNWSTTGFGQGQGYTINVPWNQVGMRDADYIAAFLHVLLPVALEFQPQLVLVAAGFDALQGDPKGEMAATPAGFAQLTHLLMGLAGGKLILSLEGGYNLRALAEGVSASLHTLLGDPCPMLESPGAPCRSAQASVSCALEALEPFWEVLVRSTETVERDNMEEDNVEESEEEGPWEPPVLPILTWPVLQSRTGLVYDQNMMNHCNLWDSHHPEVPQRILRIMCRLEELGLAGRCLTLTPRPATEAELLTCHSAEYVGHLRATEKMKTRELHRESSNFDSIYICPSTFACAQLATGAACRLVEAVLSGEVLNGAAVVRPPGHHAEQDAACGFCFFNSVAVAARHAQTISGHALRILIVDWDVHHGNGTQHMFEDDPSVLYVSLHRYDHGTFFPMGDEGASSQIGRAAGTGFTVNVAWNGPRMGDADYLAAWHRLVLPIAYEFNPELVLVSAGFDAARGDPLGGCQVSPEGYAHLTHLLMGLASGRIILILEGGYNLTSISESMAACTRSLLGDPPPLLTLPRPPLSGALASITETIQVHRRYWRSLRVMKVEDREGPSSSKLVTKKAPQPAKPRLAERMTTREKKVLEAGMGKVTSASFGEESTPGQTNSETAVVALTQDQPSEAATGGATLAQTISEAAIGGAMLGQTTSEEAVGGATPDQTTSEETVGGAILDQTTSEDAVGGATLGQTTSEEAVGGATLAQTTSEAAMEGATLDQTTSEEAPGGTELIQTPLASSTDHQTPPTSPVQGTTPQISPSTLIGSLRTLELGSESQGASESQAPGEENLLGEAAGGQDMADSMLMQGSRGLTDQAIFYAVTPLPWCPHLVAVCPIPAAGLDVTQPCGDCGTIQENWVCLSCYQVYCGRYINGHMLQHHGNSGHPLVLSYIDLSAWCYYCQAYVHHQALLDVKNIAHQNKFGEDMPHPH
UniProt P55884: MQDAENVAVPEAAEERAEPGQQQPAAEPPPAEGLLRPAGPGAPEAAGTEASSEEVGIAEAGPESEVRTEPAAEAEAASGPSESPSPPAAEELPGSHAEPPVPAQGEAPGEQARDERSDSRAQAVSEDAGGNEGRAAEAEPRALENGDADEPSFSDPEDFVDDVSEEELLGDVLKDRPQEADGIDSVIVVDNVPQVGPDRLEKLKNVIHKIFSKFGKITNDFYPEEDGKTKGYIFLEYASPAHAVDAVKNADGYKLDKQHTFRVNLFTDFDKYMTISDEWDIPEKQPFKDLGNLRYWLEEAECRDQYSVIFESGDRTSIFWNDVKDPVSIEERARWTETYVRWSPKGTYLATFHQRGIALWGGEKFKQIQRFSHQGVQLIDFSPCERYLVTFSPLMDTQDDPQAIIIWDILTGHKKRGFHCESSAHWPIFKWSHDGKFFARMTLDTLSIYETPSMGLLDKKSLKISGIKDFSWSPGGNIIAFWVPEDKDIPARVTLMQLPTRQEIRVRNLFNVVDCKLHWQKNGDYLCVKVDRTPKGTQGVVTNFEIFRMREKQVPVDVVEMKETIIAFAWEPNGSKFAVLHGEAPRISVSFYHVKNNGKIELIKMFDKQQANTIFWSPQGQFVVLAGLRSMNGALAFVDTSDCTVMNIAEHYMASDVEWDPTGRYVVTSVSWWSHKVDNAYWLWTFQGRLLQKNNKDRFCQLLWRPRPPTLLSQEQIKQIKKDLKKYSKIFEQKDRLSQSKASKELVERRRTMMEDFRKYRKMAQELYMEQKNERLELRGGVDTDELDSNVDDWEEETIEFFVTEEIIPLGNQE
UniProt P38919: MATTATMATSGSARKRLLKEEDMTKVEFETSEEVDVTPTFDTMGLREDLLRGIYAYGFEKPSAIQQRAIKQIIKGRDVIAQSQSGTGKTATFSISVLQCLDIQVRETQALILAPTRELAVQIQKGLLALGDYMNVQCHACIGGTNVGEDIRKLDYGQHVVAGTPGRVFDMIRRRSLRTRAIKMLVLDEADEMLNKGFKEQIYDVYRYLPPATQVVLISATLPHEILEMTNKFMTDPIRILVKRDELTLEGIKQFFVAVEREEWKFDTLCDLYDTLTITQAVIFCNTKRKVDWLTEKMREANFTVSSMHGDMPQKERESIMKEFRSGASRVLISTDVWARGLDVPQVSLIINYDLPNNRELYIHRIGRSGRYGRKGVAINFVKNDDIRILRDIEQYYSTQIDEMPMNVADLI
UniProt P06730: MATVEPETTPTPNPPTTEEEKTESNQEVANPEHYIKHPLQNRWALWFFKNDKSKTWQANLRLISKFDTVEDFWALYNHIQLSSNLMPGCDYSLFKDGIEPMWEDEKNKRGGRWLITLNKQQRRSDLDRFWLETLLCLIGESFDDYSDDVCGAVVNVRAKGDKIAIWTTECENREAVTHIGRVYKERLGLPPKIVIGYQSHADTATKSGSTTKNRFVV

The target of assay [1] is T1, FLAG-CTIF-WT (UniProt O43310).
T1 sequence: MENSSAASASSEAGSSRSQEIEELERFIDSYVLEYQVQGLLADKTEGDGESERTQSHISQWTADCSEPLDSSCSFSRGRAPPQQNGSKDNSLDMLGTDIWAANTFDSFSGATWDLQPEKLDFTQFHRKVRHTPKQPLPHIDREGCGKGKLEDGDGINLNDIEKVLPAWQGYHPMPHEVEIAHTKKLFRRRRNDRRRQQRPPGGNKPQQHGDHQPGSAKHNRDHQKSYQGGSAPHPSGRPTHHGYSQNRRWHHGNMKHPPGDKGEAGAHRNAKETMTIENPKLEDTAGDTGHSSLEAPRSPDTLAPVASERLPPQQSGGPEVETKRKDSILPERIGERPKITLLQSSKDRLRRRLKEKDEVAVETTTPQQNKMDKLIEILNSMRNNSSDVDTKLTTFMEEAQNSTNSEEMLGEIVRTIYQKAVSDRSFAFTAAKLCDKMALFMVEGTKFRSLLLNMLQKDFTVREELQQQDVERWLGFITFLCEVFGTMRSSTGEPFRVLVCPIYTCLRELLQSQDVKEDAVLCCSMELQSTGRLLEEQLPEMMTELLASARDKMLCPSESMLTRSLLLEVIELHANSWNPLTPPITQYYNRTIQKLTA
As to the kind of experiment: co-IP; IP of FLAG-CTIF; cells untreated or treated with MG132; endogenous BAG3 detected.

The target of assay [2] is T2, GST-tagged CTIF (recombinant) (UniProt O43310).
T2 sequence: T1 sequence
The experiment in a line: pull-down; in vitro GST pull-down with recombinant proteins expressed in E. coli; GST-tagged protein with His-eEF1A1 or His-DCTN1 in 10 mM Tris-HCl pH 8.0, 150 mM NaCl, 1% glycerol, 0.001% BSA, 0.1% Triton X-100, 4 °C, 1 h; Glutathione Sepharose 4B; western blotting. For orientation: A western blot detects proteins with antibodies after separation by electrophoresis.

In assay [3] the target is T1, FLAG-CTIF-WT. As to the kind of experiment: co-IP; IP of FLAG-CTIF with FLAG antibody-conjugated agarose beads; cells untreated or treated with MG132; extracts treated with RNase A; NET-2 buffer, 4 °C; western blotting.
Assay [4] concerns the target eIF4GI (human (endogenous in the human cell lines used)) (UniProt Q04637). The experiment in a line: co-IP; IP of eIF4GI (Supplementary Fig. 5c); western blotting.
In assay [5] the target is T3, CBC-dependent translation (CT) initiation factor (CTIF), endogenous (human (endogenous in HEK293T)) (UniProt O43310).
T3 sequence: T1 sequence
As to the kind of experiment: co-IP; IP of endogenous CTIF from extracts of HEK293T cells depleted of eEF1A1 or DCTN1 by siRNA and treated with MG132 for 12 h; extracts treated with RNase A.

The target of assay [6] is T3, CBC-dependent translation (CT) initiation factor (CTIF), endogenous (human (endogenous in HEK293T)). As to the kind of experiment: co-IP; IP of endogenous CTIF with α-CTIF antibody (control rabbit IgG) from extracts of HEK293T cells untreated or treated with MG132 for 12 h; extracts treated with RNase A; western blotting.
The target in another assay is T4, FLAG-CTIF(101–598) (UniProt O43310).
T4 sequence: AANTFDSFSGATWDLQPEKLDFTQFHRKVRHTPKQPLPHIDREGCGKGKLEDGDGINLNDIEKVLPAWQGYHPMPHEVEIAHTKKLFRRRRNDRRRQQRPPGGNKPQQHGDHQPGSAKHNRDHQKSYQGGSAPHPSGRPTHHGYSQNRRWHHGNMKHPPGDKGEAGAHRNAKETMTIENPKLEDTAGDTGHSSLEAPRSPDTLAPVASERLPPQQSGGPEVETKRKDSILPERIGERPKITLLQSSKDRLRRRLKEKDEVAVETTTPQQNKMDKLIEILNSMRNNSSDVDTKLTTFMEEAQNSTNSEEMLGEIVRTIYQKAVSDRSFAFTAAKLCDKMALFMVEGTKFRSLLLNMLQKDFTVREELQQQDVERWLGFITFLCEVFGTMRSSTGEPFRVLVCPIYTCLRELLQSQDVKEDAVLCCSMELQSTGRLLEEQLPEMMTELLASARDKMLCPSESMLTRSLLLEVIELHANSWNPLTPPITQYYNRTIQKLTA
The experiment in a line: co-IP; domain mapping: IPs of FLAG-tagged CTIF WT and deletion variants from HEK293T cells; western blotting.

The target of the next assay is T5, FLAG-CTIF(12–598) (UniProt O43310).
T5 sequence: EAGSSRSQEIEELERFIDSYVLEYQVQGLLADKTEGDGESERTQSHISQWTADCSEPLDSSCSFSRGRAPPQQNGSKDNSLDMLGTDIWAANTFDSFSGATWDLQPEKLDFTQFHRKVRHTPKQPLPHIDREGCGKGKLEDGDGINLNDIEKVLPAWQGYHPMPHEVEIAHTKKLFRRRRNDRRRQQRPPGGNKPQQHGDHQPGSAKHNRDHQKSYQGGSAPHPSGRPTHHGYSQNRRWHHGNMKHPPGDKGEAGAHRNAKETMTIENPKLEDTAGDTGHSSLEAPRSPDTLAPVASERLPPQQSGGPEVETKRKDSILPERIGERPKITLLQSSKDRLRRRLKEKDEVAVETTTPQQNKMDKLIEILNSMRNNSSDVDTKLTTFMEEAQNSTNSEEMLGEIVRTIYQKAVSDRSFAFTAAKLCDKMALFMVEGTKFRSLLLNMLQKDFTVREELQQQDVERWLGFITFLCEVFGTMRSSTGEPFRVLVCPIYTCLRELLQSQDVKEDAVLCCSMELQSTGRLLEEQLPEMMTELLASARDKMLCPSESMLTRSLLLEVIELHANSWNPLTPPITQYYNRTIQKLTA
Described as above.

The next assay deals with T6, FLAG-CTIF(1–305) (UniProt O43310).
T6 sequence: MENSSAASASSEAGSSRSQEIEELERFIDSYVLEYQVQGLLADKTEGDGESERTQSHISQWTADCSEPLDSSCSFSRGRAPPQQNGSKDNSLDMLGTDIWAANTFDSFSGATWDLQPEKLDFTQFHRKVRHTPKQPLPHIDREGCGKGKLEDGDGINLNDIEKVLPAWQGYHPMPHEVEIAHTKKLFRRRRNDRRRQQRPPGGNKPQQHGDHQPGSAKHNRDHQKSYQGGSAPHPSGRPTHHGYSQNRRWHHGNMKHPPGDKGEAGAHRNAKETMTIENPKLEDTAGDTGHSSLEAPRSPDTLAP
The assay is described as above.

For a further assay, the target named is T7, FLAG-CTIF(54–598) (UniProt O43310).
T7 sequence: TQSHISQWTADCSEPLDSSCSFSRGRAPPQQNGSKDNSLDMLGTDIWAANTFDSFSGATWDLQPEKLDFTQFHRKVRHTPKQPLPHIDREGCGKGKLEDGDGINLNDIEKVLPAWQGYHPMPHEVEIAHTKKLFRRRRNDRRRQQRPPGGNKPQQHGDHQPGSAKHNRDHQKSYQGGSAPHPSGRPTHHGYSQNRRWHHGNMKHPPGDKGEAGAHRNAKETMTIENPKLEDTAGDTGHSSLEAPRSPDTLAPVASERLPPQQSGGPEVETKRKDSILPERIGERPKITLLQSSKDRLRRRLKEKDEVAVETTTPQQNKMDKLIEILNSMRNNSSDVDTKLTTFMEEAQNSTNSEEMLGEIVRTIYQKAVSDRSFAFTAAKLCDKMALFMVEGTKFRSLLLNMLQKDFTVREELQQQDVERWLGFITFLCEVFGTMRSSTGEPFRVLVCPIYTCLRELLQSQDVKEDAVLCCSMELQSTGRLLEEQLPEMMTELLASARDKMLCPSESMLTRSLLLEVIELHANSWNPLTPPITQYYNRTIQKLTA
The assay is described as above.

For assay [7], the target named is T1, FLAG-CTIF-WT. The assay is described as above.
A further assay addresses T8, MYC-CTIF(12–53)-GST (UniProt O43310).
T8 sequence: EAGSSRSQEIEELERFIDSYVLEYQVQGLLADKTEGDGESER
The experiment in a line: pull-down; GST pull-down of MYC-CTIF(1–53)-GST, MYC-CTIF(12–53)-GST or MYC-GST expressed from pCMV-Myc plasmids; DCTN1 and eEF1A1 detected.

The target in the next assay is T9, MYC-CTIF(1–53)-GST (UniProt O43310).
T9 sequence: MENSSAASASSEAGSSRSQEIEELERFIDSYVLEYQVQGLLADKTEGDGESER
The description is as above.

Results are given in words; binding and its absence hold for the method and conditions named. In cells and extracts the contact can be indirect. Some binding calls cover weakened binding; strength is not graded here. For some assays here: Sequences can lack the tags named with a protein.

With “BCL2-associated athanogene 3 (BAG3), endogenous (from UniProt O95817 1-575)”, the binding entry in the assay with FLAG-CTIF-WT [1] is “binds”.
As to “His-eEF1A1 (recombinant human eukaryotic translation elongation factor 1 alpha 1) (from UniProt P68104 1-462)”, in [2], the binding entry was “binds”.
For the substance “Histone deacetylase 6 (HDAC6), endogenous (from UniProt Q9UBN7 1-1215)”, the binding entry in the assay with FLAG-CTIF-WT [3] is “binds”.
“dynactin 1 (DCTN1), endogenous (from UniProt Q14203-1 1-1278)”: the binding result in [4] is reported as “binds weakly”.
On to “eIF3b, endogenous (from UniProt P55884 1-814)”, for which the binding entry (in assay [5]; in the assay with FLAG-CTIF-WT [3]; in assay [6]) was “binds” throughout.
In the case of “eIF4AIII, endogenous (from UniProt P38919 1-411)”, the binding entry (with FLAG-CTIF-WT [3]; in assay [6]) was “binds” throughout.
As for “eukaryotic translation elongation factor 1 alpha 1 (eEF1A1), endogenous (from UniProt P68104 1-462)”, the binding result is on record as “no binding” with FLAG-CTIF(101–598); “binds” in the assay with FLAG-CTIF(12–598); “binds” in the assay with FLAG-CTIF(1–305); “no binding” with FLAG-CTIF(54–598); “binds” in the assay with FLAG-CTIF-WT [7]; “binds” with MYC-CTIF(12–53)-GST. In addition, the binding entry with MYC-CTIF(1–53)-GST is on record as “binds”; in assay [5] it was “no binding (condition: cells depleted of DCTN1 by siRNA)”; with FLAG-CTIF-WT [3] it was “binds”; in assay [6], “binds”.
Take “eukaryotic translation initiation factor 4E (eIF4E), endogenous (from UniProt P06730 1-217)”: the binding result (with FLAG-CTIF-WT [3]; in assay [6]) was “no binding” each time.
For “stem-loop–binding protein (SLBP), endogenous (from UniProt Q14493 1-270)”, the binding entry with FLAG-CTIF(101–598) is reported as “binds”; in the assay with FLAG-CTIF(12–598) it was “binds”; with FLAG-CTIF(1–305), “no binding”; with FLAG-CTIF(54–598), “binds”; with FLAG-CTIF-WT [7], “binds”.
